Experiments:
[1] = target: T1, Recombinant human serum albumin (human, UniProt P02768); assay: SPR Biacore 8K, VHH-Fc captured by anti-human Fc, albumin injected, pH 7.4, 25 C
T1 construct: Analyte in SPR

[2] = target: T2, Recombinant cynomolgus serum albumin (cynomolgus, UniProt A2V9Z4 25-608); assay: as above
T2 construct: Analyte in SPR

[3] = target: T1, Recombinant human serum albumin; assay: SPR Biacore 8K, VHH-Fc captured by anti-human Fc, albumin injected, pH 6.0, 25 C
[4] = target: T2, Recombinant cynomolgus serum albumin; assay: as above
[5] = target: T3, Recombinant human serum albumin (human, UniProt P02768); assay: SPR, Fc-VHH captured on anti-human Fc, human albumin as analyte, pH 7.4
T3 construct: Analyte in SPR, 0-500 nM

[6] = target: T3, Recombinant human serum albumin; assay: SPR, Fc-VHH captured on anti-human Fc, human albumin as analyte, pH 6.0
[7] = target: T3, Recombinant human serum albumin; assay: SPR, VHH-Fc captured on anti-human Fc, human albumin as analyte, pH 6.0

T2 sequence (A2V9Z4 25-608 limits assumed): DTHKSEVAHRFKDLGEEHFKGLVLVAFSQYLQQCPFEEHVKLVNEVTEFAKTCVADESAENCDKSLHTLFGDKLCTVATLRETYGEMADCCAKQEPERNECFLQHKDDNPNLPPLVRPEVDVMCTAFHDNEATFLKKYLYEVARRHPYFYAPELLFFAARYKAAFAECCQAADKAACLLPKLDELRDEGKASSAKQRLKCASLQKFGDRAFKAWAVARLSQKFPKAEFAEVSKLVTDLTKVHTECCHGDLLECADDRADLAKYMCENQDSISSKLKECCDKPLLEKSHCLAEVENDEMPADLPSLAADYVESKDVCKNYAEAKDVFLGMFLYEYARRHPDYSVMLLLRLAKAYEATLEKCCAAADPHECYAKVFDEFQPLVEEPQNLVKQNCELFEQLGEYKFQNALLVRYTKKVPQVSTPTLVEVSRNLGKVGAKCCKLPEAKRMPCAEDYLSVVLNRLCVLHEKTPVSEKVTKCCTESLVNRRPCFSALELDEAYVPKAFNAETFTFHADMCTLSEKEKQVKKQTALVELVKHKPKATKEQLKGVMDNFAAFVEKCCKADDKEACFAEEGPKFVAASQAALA

Binder	Kd [1] [nM]	Kd [2] [nM]	Kd [3] [nM]	koff [3] [s⁻¹]	kon [3] [M⁻¹ s⁻¹]	Kd [4] [nM]	koff [4] [s⁻¹]	kon [4] [M⁻¹ s⁻¹]	Kd [5] [nM]	koff [5] [s⁻¹]	kon [5] [M⁻¹ s⁻¹]	Kd [6] [nM]	koff [6] [s⁻¹]	kon [6] [M⁻¹ s⁻¹]	binding result [7]	Kd [7] [nM]	koff [7] [s⁻¹]	kon [7] [M⁻¹ s⁻¹]
VHH 12 - G4S - wild-type IgG1 Fc fusion (VHH-Fc fusion, SEQ ID NO: 153) (Fc fusion) QVQLVESGGGLVQPGGSLRLSCAASGFTFGSFGMSWVRQAPGKGPEWVSAIDSGGGDTRYSDSVKGRFAISRDNAKKTLYLQMNSLKPEDTAAYYCTIGRSTSRGSQGTQVTVSSGGGGS[letters of human IgG1 Fc left out]	60.7	116	22.1	0.00337	152000	56.8	0.00931	164000										
VHH 17 - G4S - wild-type IgG1 Fc fusion (VHH-Fc fusion, SEQ ID NO: 158) (Fc fusion) QVQLQESGGGLVQPGDSLRLSCAASGFTFGSFGMSWVRQAPGREPEWVSAIDSGGADTRYAESVKGRFTISRDNAKKTLYLQMNTLKPEDTAVYYCTIGRSTSRGSQGTQVTVSSGGGGS[letters of human IgG1 Fc left out]	43.9	82	14.2	0.00278	196000	39.8	0.00582	146000										
VHH 15 - G4S - wild-type IgG1 Fc fusion (VHH-Fc fusion, SEQ ID NO: 156) (Fc fusion) QVQLQESGGGLVQPGGSLTLSCAASGFTFGSFGMSWVRQAPGKGPEWVSAIDSSGADTRYADSVKGRFTISRDNAKKTLYLQMNSLKPEDTAVYYCTIGRSTSRGSQGTQVTVSSGGGGS[letters of human IgG1 Fc left out]	37.9	70.7	30.6	0.00228	74400	55.1	0.00411	74600										
VHH 14 - G4S - wild-type IgG1 Fc fusion (VHH-Fc fusion, SEQ ID NO: 155) (Fc fusion) QVQLVESGGGLVQPGGSLRLSCAASGFTFGSFGMSWVRQAPGKGPEWVSAIDSGGGDTRYAESVKGRFTISRDNAKKTLYLQMNSLKPEDTAVYYCTIGRSTSRVGQGTQVTVSSGGGGS[letters of human IgG1 Fc left out]	51.6	95.3	19.3	0.00269	139000	50.3	0.00593	118000										
VHH 16 - G4S - wild-type IgG1 Fc fusion (VHH-Fc fusion, SEQ ID NO: 157) (Fc fusion) EVQLVESGGGLVQPGGSLRLSCAASGFTFGSFGMSWVRQAPGKGPEWVSAIDSGGADTRYAESVKGRFTISRDNAKKTLYLQMNNLKPEDTAMYYCTIGRSTSRGSQGTQVTVSSGGGGS[letters of human IgG1 Fc left out]	53.2	102	20.2	0.00312	155000	50.5	0.00695	138000										
VHH 13 - G4S - wild-type IgG1 Fc fusion (VHH-Fc fusion, SEQ ID NO: 154) (Fc fusion) EVQLVESGGGLVQAGGSLRLSCAASGFTFGSFGMSWVRQVPGKGPEWVSAIDSGGTDTRYAESIKGRFIISRDNAKKTLYLQMNSLKPEDTAVYYCTIGQSTSRGSQGTQVTVSSGGGGS[letters of human IgG1 Fc left out]	22.5	40.9	8.46	0.000915	108000	20.2	0.00167	82500										
Fc-VHH 9 fusion (SEQ ID NO: 208) (Fc fusion) [letters of human IgG1 Fc left out]GGGSEVQLVESGGGLVQPGGSLRLSCAASGFTFGSFGMSWVRQAPGKGPEWVSAIDSGGADTRYAESVKGRFTISRDNAKKTLYLQMNSLKPEDTAVYYCTIGRSASRGSQGTQVTVSS									4.88	0.00136	280000	82.5	0.0133	161000				
Fc-VHH 1 fusion (SEQ ID NO: 34) (Fc fusion) [letters of human IgG1 Fc left out]GGGSQVQLVESGGGLVQPGGSLRLSCAASGFTFGQFGMSWVRQAPAKGPERVSAISSDGSGTIYADSVKGRFTISRDNAKNTLYLQMNSLKPEDTAVYYCTIGSSTTPSGPGQGTQVTVSS									36.8	0.00961	261000	65.7	0.0194	295000				
Fc-VHH 1-1 fusion (SEQ ID NO: 35) (Fc fusion) [letters of human IgG1 Fc left out]GGGSEVQLLESGGGLVQPGGSLRLSCAASGFTFGQFGMSWVRQAPGKGPERVSAISSDGSGTIYADSVKGRFTISRDNSKNTLYLQMNSLRPEDTAVYYCTIGSSTTPSGPGQGTLVTVSS									149	0.0213	143000	203	0.0143	70500				
Fc-VHH 1-6 fusion (SEQ ID NO: 40) (Fc fusion) [letters of human IgG1 Fc left out]GGGSQVQLVESGGGLVQPGGSLRLSCAASGFTFGQFGMSWVRQAPAKGPERVSAISSDSSGTIYADSVKGRFTISRDNAKNTLYLQMNSLKPEDTAVYYCTIGSSTTPSGPGQGTQVTVSS									71.6	0.00403	56300	82.7	0.00598	72200				
Fc-VHH 1-5 fusion (SEQ ID NO: 39) (Fc fusion) [letters of human IgG1 Fc left out]GGGSQVQLVESGGGLVQPGGSLRLSCAASGFTFGQFGMSWVRQAPAKGPERVSAISSDASGTIYADSVKGRFTISRDNAKNTLYLQMNSLKPEDTAVYYCTIGSSTTPSGPGQGTQVTVSS									90.7	0.00778	85800	106	0.0167	157000				
VHH 1-10-Fc fusion (SEQ ID NO: 32) (Fc fusion) EVQLVESGGGLVQPGGSLRLSCAASGFTFGQFGMSWFRQAPGKEREFVSAISSDGSGTIYADSVKGRFTISRDNSKNTLYLQMNSLRAEDTAVYYCTIGSSTTPSGPGQGTTVTVSSGGGGS[letters of human IgG1 Fc left out]																24	0.01	416000

Results, then the binder that gave them:

Kd [1] [nM]	Kd [2] [nM]	Kd [3] [nM]	koff [3] [s⁻¹]	kon [3] [M⁻¹ s⁻¹]	Kd [4] [nM]	koff [4] [s⁻¹]	kon [4] [M⁻¹ s⁻¹]	Kd [5] [nM]	koff [5] [s⁻¹]	kon [5] [M⁻¹ s⁻¹]	Kd [6] [nM]	koff [6] [s⁻¹]	kon [6] [M⁻¹ s⁻¹]	binding result [7]	Kd [7] [nM]	koff [7] [s⁻¹]	kon [7] [M⁻¹ s⁻¹]	Binder
53.7	99	19.7	0.00284	144000	47.4	0.00662	140000											VHH 21 - G4S - wild-type IgG1 Fc fusion (VHH-Fc fusion, SEQ ID NO: 162) (Fc fusion) QVQLVESGGGLVQPGGSLRLSCAASGFSFGSFGMSWVRQAPGKGPEWVSAIDSGGADTRYAETVKGRFTISRDNAKKTLYLQMNSLKPEDTAVYYCTIGRSTSRGSQGTQVTVSSGGGGS[letters of human IgG1 Fc left out]
33.6	60.6	12.8	0.00132	103000	28.1	0.00223	79300											VHH 19 - G4S - wild-type IgG1 Fc fusion (VHH-Fc fusion, SEQ ID NO: 160) (Fc fusion) QVQLVESGGGLVQPGGSLRLSCAASGFTFGSFGMSWVRQAPGKGPEWVSAIDSGGGVTLYAESVKGRFTISRDNAKKTLYLQMNSLKSEDTAVYYCTIGQSTSRGSQGTQVTVSSGGGGS[letters of human IgG1 Fc left out]
22.6	43.4	8.36	0.000976	117000	19.7	0.00174	88200											VHH 18 - G4S - wild-type IgG1 Fc fusion (VHH-Fc fusion, SEQ ID NO: 159) (Fc fusion) QVQLVESGGGLVQPGGSLRLSCAASGFTFGSFGMSWVRQAPGKGPEWVSAIDSGGTDTRYAESIKGRFTISRDNAKKTLYLQMNSLKPEDTAVYYCTIGQSTSRGSQGTQVTVSSGGGGS[letters of human IgG1 Fc left out]
28.8	51.5	20.9	0.00129	61800	36.3	0.00214	59200											VHH 22 - G4S - wild-type IgG1 Fc fusion (VHH-Fc fusion, SEQ ID NO: 163) (Fc fusion) QVQLVESGGGLVQAGGSLRLSCAASGFTFGSFGMSWVRQAPGKGPEWVSAIDSGGVDTRYAESVKGRFTISRDNAKKTLYLQMNSLKPEDTAVYYCTIGQSTSRGSQGTQVTVSSGGGGS[letters of human IgG1 Fc left out]
55.4	80.7	19.8	0.00294	149000	36.8	0.00385	104000											VHH 20 - G4S - wild-type IgG1 Fc fusion (VHH-Fc fusion, SEQ ID NO: 161) (Fc fusion) QVQLVESGGGLVQPGGSLRLSCAASGFTFGSFGMSWVRQAPGKGPEWVSAIDGGGADTRYAESVKGRFTISRDNAKKTLYLQMNSLKPEDTAVYYCTIGGSTSRGSQGTQVTVSSGGGGS[letters of human IgG1 Fc left out]
														no binding (tested: 500 nM)				VHH 1-9-Fc fusion (SEQ ID NO: 31) (Fc fusion) EVQLVESGGGLVQPGGSLRLSCAASGFTFGQFGMSWFRQAPGKEREFVSAISSDGSGTIYADSVKGRFTISRDNSKNTLYLQMNSLRAEDTAVYYCTIGSSTTPSGWGQGTTVTVSSGGGGS[letters of human IgG1 Fc left out]
12.1	13.8	3.58			6.19													VHH-Fc fusion control (SEQ ID NO: 33) (Fc fusion, also called VHH-Fc control; control VHH-Fc) EVQLLESGGGLVQPGGSLRLSCAASGFTFRSFGMSWVRQAPGKGPEWVSSISGSGSDTLYADSVKGRFTISRDNSKNTLYLQMNSLRPEDTAVYYCTIGGSLSRSSQGTLVTVSSGGGGS[letters of human IgG1 Fc left out]

Reference: patent US20260055169A1 (PARAGON THERAPEUTICS, published 2026)
